In all, about 50,000 compounds went through this assay and about 800 (1.6%) showed an effect of 50% or more. The list shows a part of the results.
Biological target: Bcl-2-like protein 10 (Homo sapiens) (UniProt Q9HD36)
Assay: TR3 peptide-Bcl-B binding displacers, biochemical primary FP assay, phenotype converters (AID 1240);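 also: 0% = Bcl-B with tracer peptide and DMSO and 100% = tracer peptide lacking Bcl-B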
Settings: GST-Bcl-B / FITC-TR3 peptide fluorescence polarization; stronger effect = higher value; compound at 3.75 mg/L

Sequence of UniProt Q9HD36 (Q9HD36 whole entry, looked up): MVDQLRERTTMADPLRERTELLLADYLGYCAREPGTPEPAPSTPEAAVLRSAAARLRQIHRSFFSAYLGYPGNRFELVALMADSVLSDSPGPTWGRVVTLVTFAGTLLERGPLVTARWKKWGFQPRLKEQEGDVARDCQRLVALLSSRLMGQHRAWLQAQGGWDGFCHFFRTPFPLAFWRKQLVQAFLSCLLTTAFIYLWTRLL

SMILES | displacement
COc1ccc(C(=O)NNC(=O)c2cc(OC)cc(OC)c2)cc1 | 0.7%
COc1cc(/C=N\Nc2cc(N(C)C)nc(N(C)C)n2)ccc1O | 10.6%
Cc1ccc(-c2nc3cc(NC(=O)COc4ccccc4C)ccc3o2)cc1 | -6.6%
O=C(Nc1ccc(N2CCOCC2)c(Cl)c1)c1ccc(-c2ccc(F)cc2)o1 | -17.7%
COc1ccc(NC(=O)CN(c2ccc(C)cc2)S(C)(=O)=O)cc1 | -13.8%
O=C(O)CSc1ccc(C(F)(F)F)cc1 | 5.4%
Nc1cc(NC(=O)c2cccc(Cl)c2)cc(Oc2cccnc2)c1 | -2.4%
COCCOC(=O)c1c(C)oc2ccc(OC/C=C/c3ccccc3)cc12 | 9.3%
COc1ccc(-c2csc(Nc3ccc(N)cc3)n2)cc1OC | -21%
COC(=O)c1ccc(/C=C2\SC(=S)N(c3cccc(C(F)(F)F)c3)C2=O)cc1 | -13.2%
COC(=O)c1c(N)sc2c1CCC(C)C2 (stereo not given) | 0.7%
CCOc1ccc(C(=O)N2CCN(c3cccc(Cl)c3)CC2)cc1 | 7.8%
Cc1ccc2nc(-c3ccc(C)c(NC(=S)NC(=O)c4ccccc4Cl)c3)oc2c1 | 4.5%
CC(C)OC(=O)c1c(NC(=O)c2ccccc2F)sc2c1CCCCC2 | -11.5%
O=C(CSc1nc(O)c(Cc2ccccc2)c(=O)[nH]1)Nc1cccc2ccccc12 | 15.3%
O=C1CCCN1c1ccc(S(=O)(=O)Nc2cccnc2)cc1 | -13.1%
C=C(C)CSc1nnc2n(-c3ccc(C)cc3)c(=O)c3c4c(sc3n12)COC(C)(C)C4 | 8.2%
O=C(NC(=S)Nc1ccc(N2CCOCC2)cc1)c1ccc(Cl)cc1 | -15.1%
O=C1/C(=C\c2cccc(F)c2)SC(=S)N1Cc1ccccc1 | 31.9%
CCOc1ccc(C(=O)Nc2ccc(N3CCN(C(C)=O)CC3)cc2)cc1[N+](=O)[O-] | 16.9%
CCCC1=C(C(=O)OCC)C(c2ccc3c(c2)OCO3)NC(=O)N1 (stereo not given) | -8.4%
O=C(NCCCN1CCOCC1)c1ccc(C#Cc2ccccc2)cc1 | -8%
Cc1ccc(-n2nc3cc(C)c(NC(=O)c4ccccc4I)cc3n2)cc1 | 6.7%
CC1C2=C(CC(C)(C)CC2=O)OC2=C1C(=O)CC(C)(C)C2 | -5.3%
NS(=O)(=O)c1cccc(NC(=O)c2cccc([N+](=O)[O-])c2)c1 | 8.8%
CS(=O)(=O)N(CC(=O)NCCc1ccccc1)c1ccc(Cl)cc1 | 13.7%
CCOC(=O)c1c(N2C(=O)CC(Sc3ccccc3C(=O)O)C2=O)sc(C)c1C (stereo not given) | 12.4%
Cc1ccc(/C=C2\SC(=S)N(c3cccc(C)c3C)C2=O)cc1 | 14.6%
COc1ccc2c(c1)OCC/C2=N/OC(=O)c1ccccc1SC | 12.4%
Oc1ccc(C=NN2CCN(Cc3ccccc3)CC2)cc1 | 0.8%

Reference: PubChem BioAssay AID1240 (Sanford-Burnham Center for Chemical Genomics, 2008)
